Our source for the activation values is PubChem BioAssay AID1346428 (National Center for Advancing Translational Sciences (NCATS), 2018).

Out of some 48,000 compounds screened, about 1,200 (2.5%) were called active. Inconclusive results (about 2%) are left out.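 The calls were made as follows: active = activation of at least 60% and not above a set upper limit (about 1 call in 100 departs from these limits); inconclusive = activation of 40% to 60%, or above that upper limit; inactive = activation under 40%.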 The list shows a part of the results.

This assay has as its target Probable G-protein coupled receptor 32 (Homo sapiens) (UniProt O75388). Briefly: qHTS for Agonists of Human Resolvin D1 Receptor DRV1. Also: 0% is about no effect. Conditions: CHO-K1 GPR32 beta-arrestin PathHunter luminescence, 90 min; at 76.9 µM; hits give high values; zero percent set by DMSO-only wells. A digest of the protocol: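 Readings come from a cell-based beta-arrestin complementation format: CHO-K1 GPR32 stable cells (2,500/well) treated 90 min with compounds, then beta-Gal substrate added for 1 h before chemiluminescence imaging.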
Chain of UniProt O75388 (O75388 whole entry, looked up): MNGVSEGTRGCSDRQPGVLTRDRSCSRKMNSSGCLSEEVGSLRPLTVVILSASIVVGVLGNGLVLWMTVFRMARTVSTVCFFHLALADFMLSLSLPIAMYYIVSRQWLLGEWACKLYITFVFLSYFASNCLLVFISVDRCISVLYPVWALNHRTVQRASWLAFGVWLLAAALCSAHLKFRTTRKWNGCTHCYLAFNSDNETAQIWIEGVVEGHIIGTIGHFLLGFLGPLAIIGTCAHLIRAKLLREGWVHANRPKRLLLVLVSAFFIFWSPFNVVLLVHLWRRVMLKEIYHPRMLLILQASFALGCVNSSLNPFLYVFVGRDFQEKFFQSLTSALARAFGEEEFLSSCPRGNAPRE
For the molecule `NC(N)=NCCCCN=C(N)N`, the activation was inactive: 5.89%. In the case of `Cc1ccc2oc(=O)n(CCNC(=O)Nc3ccc(C)c(F)c3)c2c1`, the activation was inactive: -8.36%. For the molecule `COc1ccccc1C1C=C(c2ccc(Cl)cc2)Nc2nc(-c3ccc(Cl)cc3)nn21` (centres undefined), the activation is inactive: -0.778%. Regarding `Cc1ccc(C)c(N2CCN(C(=O)C(C)n3c(C)c4cnn(-c5ccccc5)c(=O)c4c3C)CC2)c1` (centres undefined), the activation is inactive: -7.22%. Take `Cc1ccc(N2CCN(C(=O)c3noc4c3COc3ccc(C)cc3-4)CC2)c(C)c1`: the activation is inactive: -3.43%.

As for `COc1ccc(NC(=O)CSc2nc(-c3ccccc3)nc3c2Cc2c(CO)cnc(C)c2O3)cc1Cl`, the activation is inactive: 5.22%. As for `CCCCCn1c(=N)n(CC(O)COc2cccc(C)c2)c2ccccc21` (centres undefined), the activation is active: 89.8%. For the molecule `CC(Nc1ccc(-c2nc(-c3ccccn3)no2)cc1[N+](=O)[O-])c1ccccc1` (centres undefined), the activation was inactive: -12%.

On to `Cc1ccc(C)c(Cn2nc(C)n3c(cc4cc(C)ccc43)c2=O)c1`, for which the activation is inactive: -27.9%. For the molecule `COC(=O)c1ccc(OCC2c3cc(OC)c(OC)cc3CCN2C(=O)c2ccccc2F)cc1` (centres undefined), the activation was inactive: 11.5%. On to `Cc1ccc(CNC(=O)c2c(-c3cccc(Br)c3)noc2C)o1`, for which the activation was inactive: -17.7%. Turning to `O=C(CSCc1cnn(-c2ccccc2)c1-n1cccc1)Nc1ccc(F)cc1F`, the activation is inactive: -12.3%.

On to `Cc1cccc(C(=O)Nc2cccc(OCc3cc(=O)n4c(C)csc4n3)c2)c1`, for which the activation was inactive: 16.5%. Consider `CCc1ccc(NC(=O)c2cc3c(=O)n(Cc4cccnc4)ccc3nc2C)cc1`, for which the activation is inactive: -2.85%. As for `O=C(c1ccc(F)cc1)C1CCN(CCn2c(=S)[nH]c3ccccc3c2=O)CC1`, the activation is active: 68%. As to `CCc1ccc(NC(=O)C(=O)NCC(c2cccnc2)N2CCOCC2)cc1` (centres undefined), the activation was inactive: -1.45%. Take `COC(=O)c1ccc(Cl)c(NC(=O)C2CCN(S(=O)(=O)Cc3ccccc3)CC2)c1`: the activation is inactive: -0.369%. For `COc1ccc(Nc2nc(N)nc(CSc3nc4cc(OC)ccc4s3)n2)cc1`, the activation was inactive: -5.79%. Take `COc1ccc(NC(=O)Cc2csc(COc3cccc(C)c3)n2)c(OC)c1`: the activation is inactive: -6.72%. Turning to `OCCc1ccccc1`, the activation is inactive: -5.64%. The result for `CC(C)c1nn2c(=O)cc(COC(=O)CNC(=O)c3ccccc3)nc2s1` reads inactive: 4.74%; that for `COc1ccc(-c2noc(CCC(=O)NCc3ccc(OC)cc3OC)n2)cc1`, inactive: 46.8%; that for `COc1ccc(OCC(=O)NCCS(=O)(=O)N2CCN(c3cccc(Cl)c3)CC2)cc1`, inactive: -12%. The result for `CCn1cc(C(=O)N(C)Cc2ccccc2)c(=O)c2cc(S(=O)(=O)N3CCCCCC3)ccc21` reads inactive: -5.13%.
